{"source": "PubChem BioAssay AID1508642", "about": "(National Center for Advancing Translational Sciences (NCATS), 2021)", "note": "Hit rate of the full screen: of about 43,000 compounds, about 200 (0.47%) were called active. Another 12% or so got no clear call; they are omitted. The call rests on the fitted dose curve; in most records, active means well fitted cell-killing curve with a large enough effect; inconclusive means small, poorly fitted or top-dose-only effect, or effect the other way; inactive means flat fitted curve, though single readings scatter. The list shows a part of the results.", "data": [{"test": "Cell viability qHTS assay in S16 Pmp22-F2sN cells; further: on the % scale 0 is the no-effect control and ±100 the full control effect; nearly all actives have a fitted effect of over 65% in size", "conditions": "S16 Pmp22-F2sN Schwann cells viability, CellTiter-Glo, 24 h; series mostly up to 57.5 µM; activity change, negative = cytotoxicity: at the top concentration", "method_in_brief": "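Viability was measured by CellTiter-Glo luminescence (15 min, room temperature). This followed 24 h at 37 °C of compound exposure (23 nL pin transfer) in S16 Pmp22-F2sN Schwann cells, 500-1,000 per well.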", "values": [{"compound": "COC(=O)C(CCSC)NC(=O)Cn1ncc2c([nH]c3ccccc32)c1=O", "note": "(stereo not given)", "activity change, negative = cytotoxicity": "inactive: 4.3%"}, {"compound": "COc1ccc(NC(=O)c2c(NCc3cccs3)sc3c2CCCC3)c(OC)c1", "activity change, negative = cytotoxicity": "inactive: -1.38%"}, {"compound": "CCCOc1ccc(CNC(=O)c2ccc3c(c2)N(Cc2ccccc2)CCS3)cc1", "activity change, negative = cytotoxicity": "inactive: -8.98%"}, {"compound": "Cc1ccc(NC(=O)Nc2cccc(C)n2)cc1", "activity change, negative = cytotoxicity": "inactive: 1.27%"}, {"compound": "CCOc1ccc(C2CC(=O)NC(NC(=O)c3cccc(Cl)c3)=N2)cc1", "note": "(stereo not given)", "activity change, negative = cytotoxicity": "inactive: -30%"}, {"compound": "Cc1ccc(CCNC(=O)CN(c2cc(C)cc(C)c2)S(=O)(=O)c2c(C)noc2C)cc1", "activity change, negative = cytotoxicity": "inactive: 1.21%"}, {"compound": "COc1ccccc1CNC(=O)CCCn1c(=O)c2ccccc2n(Cc2ccc(F)cc2)c1=O", "activity change, negative = cytotoxicity": "inactive: -4.58%"}, {"compound": "COc1ccccc1Nc1nc(-c2ccc(F)cc2)c2c(n1)-c1ccccc1OC2", "activity change, negative = cytotoxicity": "inactive: -4%"}, {"compound": "COc1cccc(-n2ccn(CC(=O)NCc3ccc(C)cc3)c(=O)c2=O)c1", "activity change, negative = cytotoxicity": "inactive: -2.49%"}, {"compound": "COc1ccc(N(CC(=O)N2CCN(c3ccccc3)CC2)S(=O)(=O)c2c(C)nn(C)c2C)cc1", "activity change, negative = cytotoxicity": "inactive: 1.01%"}, {"compound": "COc1ccc(-c2cc3nc(C)c(CCC(=O)NCc4ccccc4Cl)c(C)n3n2)c(OC)c1", "activity change, negative = cytotoxicity": "inactive: -8.06%"}, {"compound": "Cc1ccc(Nc2ccc3cc(S(=O)(=O)N4CCCCC4)ccc3n2)cc1F", "activity change, negative = cytotoxicity": "inactive: -18.4%"}, {"compound": "COc1ccc(C)cc1NC(=O)Cn1c(=O)oc2cc(S(=O)(=O)N3CCCCC3)ccc21", "activity change, negative = cytotoxicity": "inactive: 8.99%"}, {"compound": "CCOC(=O)c1ccc(NC(=O)CSc2nc(-c3ccc(OC)cc3)cc(C(F)(F)F)c2C#N)cc1", "activity change, negative = cytotoxicity": "inactive: 8.28%"}, {"compound": "CCn1cc2nc(SCC(=O)Nc3ccc(OC)c(Cl)c3)n(Cc3ccc(OC)cc3)c(=O)c2n1", "activity change, negative = cytotoxicity": "inactive: 9.44%"}, {"compound": "N#Cc1nc(COc2ccccc2Cl)oc1NCCc1ccccc1", "activity change, negative = cytotoxicity": "inactive: -3.19%"}, {"compound": "CCc1cccc(C)c1NC(=O)C1CCN(S(=O)(=O)c2c(C)noc2/C=C/c2c(C)cc(C)cc2C)CC1", "activity change, negative = cytotoxicity": "inactive: 2.21%"}, {"compound": "CCOc1ccc(NC(=O)NCCN2CCN(c3cccc(C)c3C)CC2)cc1", "activity change, negative = cytotoxicity": "inactive: -17%"}, {"compound": "CC(=O)c1ccc(NC(=O)c2cn(-c3ccccc3)nc2-c2ccc(Br)cc2)cc1", "activity change, negative = cytotoxicity": "inactive: 13.5%"}, {"compound": "O=C(CCC1CCCC1)N1CCc2c([nH]c3ccccc23)C1c1ccc(F)cc1", "note": "(stereo not given)", "activity change, negative = cytotoxicity": "inactive: 6.01%"}, {"compound": "COc1ccc(OC)c(NC(=O)Cn2c(=O)n(-c3cccc(C)c3)c(=O)c3c2c2cc(C)ccc2n3C)c1", "activity change, negative = cytotoxicity": "inactive: 9.53%"}, {"compound": "Cc1ccc(NC(=O)c2c(NC(=O)c3ccc(F)cc3)sc3c2CCCC3)cc1C", "activity change, negative = cytotoxicity": "inactive: 20.5%"}, {"compound": "CCOc1ccc(-n2c(SCC(=O)Nc3cc(C)on3)nc3c([nH]c4ccccc43)c2=O)cc1", "activity change, negative = cytotoxicity": "inactive: 1.88%"}, {"compound": "CCc1ccccc1N(C)C(=O)Cn1cnc2sc(C)c(S(=O)(=O)N3CCC(C)CC3)c2c1=O", "activity change, negative = cytotoxicity": "inactive: -0.237%"}, {"compound": "COc1cccc(CNC(=O)CCCn2nc(C)c3sc4ccccc4c3c2=O)c1", "activity change, negative = cytotoxicity": "inactive: 11.2%"}, {"compound": "CCOC(=O)c1c(C)oc2nc(C)nc(N3CCN(c4cc(Cl)ccc4C)CC3)c12", "activity change, negative = cytotoxicity": "inactive: 18.6%"}, {"compound": "CCOC(=O)c1cc(OC(=O)c2cc(OC)c(OC)c(OC)c2)n(-c2ccccc2)n1", "activity change, negative = cytotoxicity": "inactive: 6.82%"}, {"compound": "CCn1c(C(=O)Nc2c(C)cccc2C)cc2sc(Cl)cc21", "activity change, negative = cytotoxicity": "inactive: -2.27%"}, {"compound": "COc1cccc(NC(=O)N(Cc2c[nH]c3ccccc23)C2CCCCCC2)c1", "activity change, negative = cytotoxicity": "inactive: -26.3%"}, {"compound": "CN(C(=O)c1cc2c(Cl)nc3ccccc3c2s1)c1cccc(C(F)(F)F)c1", "activity change, negative = cytotoxicity": "inactive: 7.52%"}, {"compound": "Cc1ccc(NC(=O)c2oc3ccc(S(=O)(=O)N4CCCCCC4)cc3c2C)c(C)c1", "activity change, negative = cytotoxicity": "inactive: 27.8%"}, {"compound": "COc1cccc(-c2noc(COc3ccc(C(C)(C)C)cc3)n2)c1", "activity change, negative = cytotoxicity": "inactive: -0.223%"}, {"compound": "CCC1CCc2nc3sc(C(=O)Nc4ccc(C)cc4C)c(N)c3cc2C1", "note": "(stereo not given)", "activity change, negative = cytotoxicity": "inactive: 6.87%"}, {"compound": "COC(=O)Cn1ccc2cc(S(=O)(=O)N3CCCCCC3)ccc21", "activity change, negative = cytotoxicity": "inactive: -4.89%"}, {"compound": "CCOC(=O)N1CCC2(CC1)OC(=O)C(C)=C2C(=O)NCc1ccc(C)cc1", "activity change, negative = cytotoxicity": "inactive: 5.75%"}, {"compound": "CCNC(=O)c1ccc(CSc2nc3cccnc3n2Cc2ccc(OC)cc2)cc1", "activity change, negative = cytotoxicity": "inactive: -7.9%"}, {"compound": "COC(=O)c1ccc(NC(=O)Cn2c(-c3nonc3N)nc3ccccc32)cc1", "activity change, negative = cytotoxicity": "inactive: 20.8%"}, {"compound": "CCCc1cnc2c(c1SCC(=O)Nc1c(C)cc(C)cc1C)c(=O)n(C)c(=O)n2C", "activity change, negative = cytotoxicity": "inactive: 0.587%"}, {"compound": "Cc1nn(CC(=O)N2CCC(C)CC2)c(=O)c2cc3occc3n12", "activity change, negative = cytotoxicity": "inactive: 10.4%"}, {"compound": "Cc1cccc(-c2nc(CN3CCCC(C(=O)NCc4ccc(Cl)cc4)C3)c(C)o2)c1", "note": "(stereo not given)", "activity change, negative = cytotoxicity": "inactive: -4.31%"}, {"compound": "CCN(C(=O)CN1C(=O)COc2ccc(S(=O)(=O)N3CCOCC3)cc21)c1cccc(C)c1", "activity change, negative = cytotoxicity": "inactive: 8.31%"}, {"compound": "O=C(NCCc1csc(-c2cccc(F)c2)n1)c1ccccc1C(F)(F)F", "activity change, negative = cytotoxicity": "inactive: 8.56%"}, {"compound": "N=c1n(CCN2CCCCC2)c2ccccc2n1CC(O)COc1ccccc1", "note": "(stereo not given)", "activity change, negative = cytotoxicity": "inactive: -20.7%"}, {"compound": "COc1ccc(N2CCN(C(=O)CCC(=O)NNc3nc4ccccc4c4nc(C)nn34)CC2)cc1", "activity change, negative = cytotoxicity": "inactive: 0.641%"}, {"compound": "CSc1ccc(C(=O)Nc2ccc(-c3nc4ccccc4s3)c(O)c2)cc1", "activity change, negative = cytotoxicity": "inactive: 1.47%"}, {"compound": "CCC(=O)N1CCc2cc(S(=O)(=O)CCC(=O)N3CCN(c4cccc(Cl)c4)CC3)ccc21", "activity change, negative = cytotoxicity": "inactive: -3.19%"}, {"compound": "COc1ccc2c(c1)c1c(c(=O)n(Cc3ccccc3)c(=O)n1CC(=O)NCc1ccc(C)cc1)n2C", "activity change, negative = cytotoxicity": "inactive: -6.55%"}, {"compound": "Cc1cc(C)cc(NC(=O)c2oc3ccc4c(c3c2C)C(=O)CC(C)(C)O4)c1", "activity change, negative = cytotoxicity": "inactive: 15.5%"}, {"compound": "COc1cc(OC)c(NC(=O)Cn2c(=O)cc(C)c3c(C)nn(-c4ccc(C)cc4)c32)cc1Cl", "activity change, negative = cytotoxicity": "inactive: 11.5%"}, {"compound": "CSc1ccc(-c2nc3c(C)cccn3c2Nc2ccc3c(c2)OCCO3)cc1", "activity change, negative = cytotoxicity": "inactive: 0.254%"}, {"compound": "Cc1ccc(OCc2nnc(SCC(=O)Nc3ccccc3C(C)C)o2)cc1", "activity change, negative = cytotoxicity": "inactive: -1.5%"}, {"compound": "Cc1ccc(-c2c(C(=O)NCc3ccc(F)cc3)oc(=O)c3ccccc23)cc1", "activity change, negative = cytotoxicity": "inactive: 20.1%"}, {"compound": "Cn1nc(C(=O)NCc2ccc(F)cc2)c2c1-c1ccccc1SC2", "activity change, negative = cytotoxicity": "inactive: -4.6%"}, {"compound": "CC1CCN(C(=O)CN2c3ccc(C(C)C)cc3-c3ccccc3S2(=O)=O)CC1", "activity change, negative = cytotoxicity": "inactive: -1.72%"}, {"compound": "Cc1cc(-c2ccccc2)n2nc(-c3cccc(Br)c3)cc2n1", "activity change, negative = cytotoxicity": "inactive: -1.12%"}, {"compound": "CSCCC(NS(=O)(=O)c1ccc2c(c1)oc(=O)n2C)C(=O)NCc1ccccc1", "note": "(stereo not given)", "activity change, negative = cytotoxicity": "inactive: 11.7%"}, {"compound": "Cc1ccc2cccc(NC(=O)c3ccc(-c4cccc(Cl)c4Cl)o3)c2n1", "activity change, negative = cytotoxicity": "inactive: 1.31%"}, {"compound": "COc1ccc(CCCc2nnc(SCC(=O)Nc3ccc(F)cc3)o2)cc1C", "activity change, negative = cytotoxicity": "inactive: 3.87%"}, {"compound": "CC(=O)c1cccc(NC(=O)c2oc(=O)c3ccccc3c2-c2ccccc2)c1", "activity change, negative = cytotoxicity": "inactive: 21.5%"}, {"compound": "CC(C)CN(CCNC(=O)c1cn(C)c2ccc(S(=O)(=O)N3CCOCC3)cc2c1=O)CC(C)C", "activity change, negative = cytotoxicity": "inactive: -28.5%"}]}]}
